Measured values from the supplement of paper PMC10126150.
Values marked as one replicate rest on one cluster of the flow cell; about a third of the high ones do not repeat.
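Further: ATP exposure 15 min at 22 °C before imaging.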

These sequences were tested on ATP (assay: switch fluorescence ratio, 500 uM ATP over buffer (Cy3 cluster intensity, sum of 5 cycles each) (fold (ratio)); higher = stronger signal-on switching upon ATP binding; sequences stand for … in TCGTCGGCAGCGTCAGATGTGTATAAGAGACAGTTTTTTTTTTTTTTTTTTTTTTTTT…TC). Details: aptamer strand: ATP DNA aptamer (quencher-CACCTGGGGGAGTATTGCGGAGGAAGG + anchor), 100 nM annealed; ATP concentration: 500 uM; one replicate.
Procedure, shortened: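 Between each of five buffer/ATP cycles, the flow-cell was stripped with NaOH and re-annealed. Each cycle imaged Cy3-labelled switching-strand clusters, annealed to 100 nM quencher-labelled ATP aptamer on a modified Illumina MiSeq flow-cell, first in selection buffer and then after 15 min with 500 uM ATP at 22 °C. The fluorescence ratio is summed target-cycle over summed buffer-cycle Cy3 intensity per cluster, averaged per switch-domain sequence, with clusters outside 100-1000 RFU excluded.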
AGATCTGTTA showed a switch fluorescence ratio of 0.993. AGATGAACG gave a switch fluorescence ratio of 1.04. With AGATGAGGTT the switch fluorescence ratio was 0.999. For AGATGCGTAC, the switch fluorescence ratio was 1.28. With AGATGGAAAA the switch fluorescence ratio was 0.951. Work on AGATGGGAAG yielded a switch fluorescence ratio of 1. Sequence AGATGGGACT has a switch fluorescence ratio of 0.973. Sequence AGATGGTCGG has a switch fluorescence ratio of 0.983. With AGATGGTTCG the switch fluorescence ratio was 1.01. With AGATGTAACG the switch fluorescence ratio was 1.03. For AGATGTATTA, the switch fluorescence ratio was 0.952. In the case of AGATTACAGC, the switch fluorescence ratio is reported as 1. In the case of AGATTACTCC, the switch fluorescence ratio is reported as 1.26. For AGATTAGGC, the switch fluorescence ratio was 1.02. Work on AGATTCGGAC yielded a switch fluorescence ratio of 1.02. For AGATTCTTGT, the switch fluorescence ratio was 0.961. Work on AGATTGCAGT yielded a switch fluorescence ratio of 0.978. In the case of AGATTGGGAG, the switch fluorescence ratio is reported as 1.02. Sequence AGATTGTCCG has a switch fluorescence ratio of 1.02. AGATTGTGGC gave a switch fluorescence ratio of 0.963. With AGATTTAACC the switch fluorescence ratio was 1.06. Work on AGATTTGTGC yielded a switch fluorescence ratio of 0.971. Sequence AGATTTTCGG has a switch fluorescence ratio of 0.978. Sequence AGATTTTGCT has a switch fluorescence ratio of 0.954. In the case of AGATTTTTGC, the switch fluorescence ratio is reported as 1.05. In the case of AGCAAAATCC, the switch fluorescence ratio is reported as 1.26. With AGCAAGAAAG the switch fluorescence ratio was 1.01. In the case of AGCAATGACT, the switch fluorescence ratio is reported as 4.62. With AGCAATTTAA the switch fluorescence ratio was 1.06. In the case of AGCACATGAG, the switch fluorescence ratio is reported as 1.03. In the case of AGCACCTTTT, the switch fluorescence ratio is reported as 0.994. AGCACTTCTA showed a switch fluorescence ratio of 1.02. AGCAGAGTTT was tested, and the switch fluorescence ratio was 1.02. Work on AGCAGATGGA yielded a switch fluorescence ratio of 0.989. Sequence AGCAGCGACG has a switch fluorescence ratio of 1.03. In the case of AGCAGGCGGG, the switch fluorescence ratio is reported as 1.01. AGCAGGGAGG gave a switch fluorescence ratio of 1.01. Work on AGCATACGCA yielded a switch fluorescence ratio of 1.29. For AGCATCATT, the switch fluorescence ratio was 0.985. Work on AGCATCCGCT yielded a switch fluorescence ratio of 1.06. Sequence AGCATCGAGG has a switch fluorescence ratio of 1.04. Work on AGCATTACTT yielded a switch fluorescence ratio of 2.26. Work on AGCATTAGAC yielded a switch fluorescence ratio of 1.52. For AGCATTTCCA, the switch fluorescence ratio was 1.05. Work on AGCCAAACGA yielded a switch fluorescence ratio of 0.989. Sequence AGCCAATATC has a switch fluorescence ratio of 2.58. Work on AGCCACAAGT yielded a switch fluorescence ratio of 1.03. Sequence AGCCAGAGG has a switch fluorescence ratio of 1.02. For AGCCAGGGC, the switch fluorescence ratio was 1.03. Sequence AGCCATATGC has a switch fluorescence ratio of 1.14. With AGCCATGGGA the switch fluorescence ratio was 0.997. Work on AGCCATTGCG yielded a switch fluorescence ratio of 0.999. AGCCCAGCTA was tested, and the switch fluorescence ratio was 0.954. AGCCCGCTAT was tested, and the switch fluorescence ratio was 1. In the case of AGCCGAAGAG, the switch fluorescence ratio is reported as 1.01. In the case of AGCCGATGTA, the switch fluorescence ratio is reported as 0.992. AGCCGCCACC showed a switch fluorescence ratio of 1.54. AGCCGCCACG was tested, and the switch fluorescence ratio was 1.05. For AGCCGCTAAT, the switch fluorescence ratio was 1.28. With AGCCGTAGTA the switch fluorescence ratio was 0.992. Work on AGCCGTCATG yielded a switch fluorescence ratio of 0.976. With AGCCGTGTTG the switch fluorescence ratio was 1.01. AGCCGTTAGC showed a switch fluorescence ratio of 1.01. AGCCTAGTTG was tested, and the switch fluorescence ratio was 0.995. AGCCTCCTAA gave a switch fluorescence ratio of 1.14. Work on AGCCTGCAAG yielded a switch fluorescence ratio of 0.976. AGCCTGCACC showed a switch fluorescence ratio of 1.03. AGCCTTGAAC showed a switch fluorescence ratio of 1.01. AGCCTTGATG gave a switch fluorescence ratio of 1.02. In the case of AGCCTTGCCG, the switch fluorescence ratio is reported as 1.07. AGCGAAGGTT gave a switch fluorescence ratio of 0.972. Work on AGCGACGGG yielded a switch fluorescence ratio of 0.997. Sequence AGCGACGGTA has a switch fluorescence ratio of 1.03. AGCGAGGTGT showed a switch fluorescence ratio of 1.04. Sequence AGCGAGTTAT has a switch fluorescence ratio of 1. In the case of AGCGATGGG, the switch fluorescence ratio is reported as 0.998. AGCGATTCA gave a switch fluorescence ratio of 0.989. Sequence AGCGCCCAGG has a switch fluorescence ratio of 1.07. AGCGCCTCCA was tested, and the switch fluorescence ratio was 1.04. AGCGCGAGA gave a switch fluorescence ratio of 1.07. Work on AGCGCGATCT yielded a switch fluorescence ratio of 0.993. AGCGCGCTCC was tested, and the switch fluorescence ratio was 1.01. With AGCGCTTCGG the switch fluorescence ratio was 0.964. For AGCGGAATCT, the switch fluorescence ratio was 1.04. With AGCGGCCTTA the switch fluorescence ratio was 1.01. With AGCGGGGTTA the switch fluorescence ratio was 1.05. Work on AGCGGTAAAC yielded a switch fluorescence ratio of 1.05. AGCGTAGTGC gave a switch fluorescence ratio of 0.982. With AGCGTCGCGG the switch fluorescence ratio was 1.05. Work on AGCGTGACGA yielded a switch fluorescence ratio of 1.03. Work on AGCGTGACGC yielded a switch fluorescence ratio of 0.992. In the case of AGCGTGGCCT, the switch fluorescence ratio is reported as 0.986. AGCGTGTATC showed a switch fluorescence ratio of 1.02. For AGCGTTGCCA, the switch fluorescence ratio was 1.01. In the case of AGCGTTGGTT, the switch fluorescence ratio is reported as 1. AGCTAGGAGT showed a switch fluorescence ratio of 0.978. Sequence AGCTAGGGA has a switch fluorescence ratio of 0.964. In the case of AGCTATATTC, the switch fluorescence ratio is reported as 1.33. AGCTCAGATT gave a switch fluorescence ratio of 0.956. In the case of AGCTGAACCG, the switch fluorescence ratio is reported as 1.02. AGCTGACGGG gave a switch fluorescence ratio of 1.04. Work on AGCTGAGAAC yielded a switch fluorescence ratio of 0.987. For AGCTGAGGAT, the switch fluorescence ratio was 0.947. With AGCTGCCTT the switch fluorescence ratio was 1.07. AGCTGCGGCA was tested, and the switch fluorescence ratio was 1. Sequence AGCTGGCACT has a switch fluorescence ratio of 1.04. With AGCTGGCGG the switch fluorescence ratio was 0.996. For AGCTGGGACA, the switch fluorescence ratio was 1.01. With AGCTGGTAGA the switch fluorescence ratio was 1.05. In the case of AGCTGTAA, the switch fluorescence ratio is reported as 1.01. In the case of AGCTGTGCGG, the switch fluorescence ratio is reported as 0.94. With AGCTGTTACA the switch fluorescence ratio was 1.03. With AGCTTAGGCG the switch fluorescence ratio was 1.01. AGCTTATGCC gave a switch fluorescence ratio of 0.982. Sequence AGCTTATTTT has a switch fluorescence ratio of 1.01. In the case of AGCTTCTATG, the switch fluorescence ratio is reported as 0.979. For AGCTTGCTC, the switch fluorescence ratio was 1.07. In the case of AGCTTTGCGC, the switch fluorescence ratio is reported as 1.02. Work on AGGAAAGGTA yielded a switch fluorescence ratio of 1.05. With AGGAAAGTA the switch fluorescence ratio was 1.01. Work on AGGAACCTTA yielded a switch fluorescence ratio of 1.15. AGGAAGAAAA gave a switch fluorescence ratio of 1.06. In the case of AGGAAGCAAA, the switch fluorescence ratio is reported as 1.11. AGGAAGCTGA gave a switch fluorescence ratio of 0.995. In the case of AGGAATACGA, the switch fluorescence ratio is reported as 2.35. AGGAATGTGT was tested, and the switch fluorescence ratio was 0.917. Sequence AGGACAATGT has a switch fluorescence ratio of 1.07. In the case of AGGACGACCT, the switch fluorescence ratio is reported as 1.05. AGGACGATTT was tested, and the switch fluorescence ratio was 1.03. For AGGACGGATT, the switch fluorescence ratio was 0.993. In the case of AGGACGT, the switch fluorescence ratio is reported as 0.985. Sequence AGGACTATAA has a switch fluorescence ratio of 1.03. AGGACTCAGG gave a switch fluorescence ratio of 0.969. With AGGACTCT the switch fluorescence ratio was 1. Work on AGGACTGGCC yielded a switch fluorescence ratio of 1. For AGGACTTG, the switch fluorescence ratio was 1.01. With AGGAGCAATA the switch fluorescence ratio was 6.08. In the case of AGGAGCTTCT, the switch fluorescence ratio is reported as 1. AGGAGGCCCG gave a switch fluorescence ratio of 1.12. With AGGAGGCTGA the switch fluorescence ratio was 1. For AGGAGTTGCG, the switch fluorescence ratio was 1.01. AGGATAGTA gave a switch fluorescence ratio of 1.01. AGGATATATG showed a switch fluorescence ratio of 0.961. For AGGATCAAGT, the switch fluorescence ratio was 0.998. Sequence AGGATCACTA has a switch fluorescence ratio of 1.02. AGGATCATTC showed a switch fluorescence ratio of 0.947. For AGGATGCCCA, the switch fluorescence ratio was 0.991. With AGGATGGGTA the switch fluorescence ratio was 1.01. AGGATGGTT showed a switch fluorescence ratio of 0.965. AGGATGTTAA was tested, and the switch fluorescence ratio was 0.926. In the case of AGGATTAAAG, the switch fluorescence ratio is reported as 1.01. AGGATTAGAC gave a switch fluorescence ratio of 0.985. For AGGCACACGG, the switch fluorescence ratio was 1.07. In the case of AGGCAGATCT, the switch fluorescence ratio is reported as 0.989. With AGGCAGCACA the switch fluorescence ratio was 1.12. Sequence AGGCATGCAT has a switch fluorescence ratio of 0.968. Work on AGGCCCATCA yielded a switch fluorescence ratio of 0.986. For AGGCCCCTAG, the switch fluorescence ratio was 0.977. Sequence AGGCCGAG has a switch fluorescence ratio of 0.99. For AGGCCGCTTC, the switch fluorescence ratio was 1.05. Work on AGGCCGTAGA yielded a switch fluorescence ratio of 1.02. AGGCCTAGGG gave a switch fluorescence ratio of 0.979. Work on AGGCCTGATA yielded a switch fluorescence ratio of 0.997. In the case of AGGCCTGGAA, the switch fluorescence ratio is reported as 1.03. AGGCGAACA was tested, and the switch fluorescence ratio was 0.987. AGGCGAATG was tested, and the switch fluorescence ratio was 0.952. AGGCGACC was tested, and the switch fluorescence ratio was 1.08. AGGCGGCCTA was tested, and the switch fluorescence ratio was 1. AGGCGGGATC was tested, and the switch fluorescence ratio was 1.01. With AGGCGGTCCG the switch fluorescence ratio was 1.01. With AGGCGTTACA the switch fluorescence ratio was 1.01. AGGCTACCGG showed a switch fluorescence ratio of 1.01. Sequence AGGCTACTAA has a switch fluorescence ratio of 1. AGGCTAGGCG showed a switch fluorescence ratio of 0.991. For AGGCTAGTAA, the switch fluorescence ratio was 0.973. Work on AGGCTGGAA yielded a switch fluorescence ratio of 1.01. AGGCTTAACT gave a switch fluorescence ratio of 1.03. For AGGCTTCCTG, the switch fluorescence ratio was 1.06. AGGCTTCGAA was tested, and the switch fluorescence ratio was 0.983. AGGGAAAACT showed a switch fluorescence ratio of 1.06. AGGGAG was tested, and the switch fluorescence ratio was 1.02. AGGGAGAATG showed a switch fluorescence ratio of 0.93. AGGGAGAGGA showed a switch fluorescence ratio of 1.01. Sequence AGGGAGCTG has a switch fluorescence ratio of 0.983. Sequence AGGGAGGAGA has a switch fluorescence ratio of 1.02. AGGGATACAA gave a switch fluorescence ratio of 1.02. Work on AGGGATCCCG yielded a switch fluorescence ratio of 0.972. For AGGGATCTCG, the switch fluorescence ratio was 1.01. AGGGATTCGG gave a switch fluorescence ratio of 0.985. For AGGGATTTGC, the switch fluorescence ratio was 1.01. In the case of AGGGCACCAA, the switch fluorescence ratio is reported as 1.06. AGGGCACTGG showed a switch fluorescence ratio of 0.981. AGGGCAGCTA showed a switch fluorescence ratio of 1.02. In the case of AGGGCCACCA, the switch fluorescence ratio is reported as 1.06. Work on AGGGCCCCG yielded a switch fluorescence ratio of 0.983. AGGGCTATGA gave a switch fluorescence ratio of 0.975. In the case of AGGGCTGCGA, the switch fluorescence ratio is reported as 0.99. AGGGCTGCTT gave a switch fluorescence ratio of 1.07. Sequence AGGGGAGGCG has a switch fluorescence ratio of 1.05. For AGGGGGCTAG, the switch fluorescence ratio was 1.01. AGGGGTATCC gave a switch fluorescence ratio of 0.978.
